# Test results from PubChem BioAssay AID686978 (National Center for Advancing Translational Sciences (NCATS), 2013).
# In all, about 420,000 compounds went through this assay and about 64,000 (15%) were called active. Inconclusive means that the source gave no clear call. Such entries were picked first, then a sample of the others. Calls follow the shape of the dose curve; as a rule, active = well fitted inhibition curve with a large enough effect; inconclusive = small, poorly fitted or top-dose-only effect; inactive = flat fitted curve, though single readings scatter. No potency is given beside an inconclusive call; the fits are too rough.
# Assay: qHTS for Inhibitors of human tyrosyl-DNA phosphodiesterase 1 (TDP1): qHTS in cells in absence of CPT; also: nearly all actives have a fitted effect of over 55% in size
# Settings: DT40 Tdp1-/- hTDP1 cells, no CPT, ATP luminescence, 48 h; activity change, negative = growth inhibition: at 46.2 µM (top of the series) unless noted
# Summary of the method: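 A cellular qHTS used chicken DT40 cells lacking endogenous Tdp1 but carrying stably transfected human TDP1. Compounds were applied without camptothecin, and cell growth kinetics were judged by ATP-dependent luminescence after ≥48 hr.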
# % is scaled to controls: 0 for no effect and ±100 for the full control effect; potency is read from the fitted curve at half-maximal effect; tags tell the direction and shape of the fitted curve.
SMILES,Potency,"activity change, negative = growth inhibition"
COc1ccc(C2=CC(=O)C[C@H](c3ccc(OC)c(OC)c3)C2)cc1,active: 18.4 µM,
O=C(CN1CCN(S(=O)(=O)N2CCOCC2)CC1)Nc1ccc(Cl)c(Cl)c1,active: 16.4 µM,
CC(=O)c1ccc(N2CCN(CC(=O)Nc3ccccc3C(=O)NC3CC3)CC2)c(F)c1,"inconclusive [inhibitor, partial curve]",
CCOC(=O)c1cccc(NC(=O)C2CCN(S(=O)(=O)c3cccs3)CC2)c1,"inconclusive [inhibitor, single point]",
CCOc1ccccc1CNC(=O)CN1C(=O)C2CCCCN2c2ccc(C(=O)N(C)C)cc21 (configuration not stated),"inconclusive [inhibitor, single point]",
CC1(C(=O)Nc2ccc3nc[nH]c3c2)CCN1C(=O)Cc1ccc(-c2ccccc2)cc1 (configuration not stated),active: 16.4 µM,
CN(C)c1ccc(NC(=S)N(CCc2ccccc2)C2CC(=O)N(c3c(Cl)cccc3Cl)C2=O)cc1 (configuration not stated),"inconclusive [inhibitor, single point]",
O=C(OCC(=O)N1CCc2ccccc2C1)c1cccnc1Cl,,inactive: 3.48%
Nc1cc(=O)[nH]c(SCc2ccccc2)n1,,inactive: 3.99%
COC(=O)c1ccccc1NC(=O)CCCS(=O)(=O)c1nc(-c2ccccc2OC)cc(C(F)(F)F)n1,,inactive: -20.5%
COc1ccc(S(=O)(=O)Nc2cccc3c2O[C@H](CN(C)Cc2ccc(Oc4ccccc4)cc2)[C@@H](C)CN([C@H](C)CO)C3=O)cc1,active: 20.6 µM,
COc1ccc(-c2csc(NC(=O)c3c(OC)cccc3OC)n2)cc1,"inconclusive [inhibitor, single point]",
CCC(=O)c1ccc(N2CCN(C(=O)COc3ccc(F)cc3)CC2)c(F)c1,active: 23.1 µM,
COC(=O)c1ccc(NC(=O)c2c(NCc3ccc(OC)c(OC)c3)sc3c2CCCC3)cc1,active: 5.17 µM,
Cc1nn(-c2ccccc2)c(C)c1/C=N/NC(=O)c1cc(-c2ccc(Br)s2)[nH]n1,active: 4.61 µM,
CCn1nnnc1NCc1ccc(N2CCCC2)cc1,"inconclusive [inhibitor, single point]",
COc1ccc(-c2cc3c(=O)n(CC(=O)NCc4ccc(F)cc4)ncn3n2)cc1,"inconclusive [inhibitor, full curve]",
COc1ccc(NC(C)=O)cc1S(=O)(=O)N1CCN(Cc2cccs2)CC1,,inactive: -32.7%
CC(C)N(C(=O)c1ccc(Cc2cn(C)c3ccccc23)nc1)C(C)C,"inconclusive [inhibitor, single point]",
O=[N+]([O-])c1ccc(N2CCCCC2)cn1,,inactive: 7.64%
COc1ccc(Nc2cc(C)nc3ccc(OC)cc23)cc1,"inconclusive [inhibitor, single point]",
O=C(Cn1cnc2c(oc3ccccc32)c1=O)N1CCCC1,,inactive: 5.52%
O=C(/C=C/c1ccc(Br)cc1)N1CCN(Cc2ccccc2)CC1,"inconclusive [inhibitor, single point]",
Cc1ccc(C)c(NC(=O)CSc2nnc(CNC(=O)c3cccs3)o2)c1,,inactive: 31.8%

SMILES,Potency,"activity change, negative = growth inhibition"
O=C(CN1CCc2cc3c(cc2C1)OCCCO3)Nc1cccc(Br)c1,"inconclusive [inhibitor, partial curve]",
Cc1cc(C)n(-c2nc(-c3cccc(Cl)c3)cs2)n1,"inconclusive [inhibitor, single point]",
CCOc1ccc(OCC)c(NC(=O)c2c(C)nn(-c3ccccc3)c2-n2cccc2)c1,"inconclusive [inhibitor, single point]",
O=C(NNc1cc(Cl)cc(Cl)c1)c1sccc1Cl,"inconclusive [inhibitor, single point]",
O=C(Nc1ncc([N+](=O)[O-])s1)C1COc2ccccc2O1 (configuration not stated),active: 18.4 µM,
Cc1cccc(-c2ocnc2C(=O)N2CCN(C(=O)c3cccs3)CC2)c1,"inconclusive [inhibitor, partial curve]",
COc1cc(OC)cc(-c2cc3ccc(OC)cc3cn2)c1,active: 13 µM,
COc1ccc(CCCc2nnc(SCC(=O)Nc3ccc(Cl)cc3)o2)cc1,,inactive: -24.8%
CCc1ccc(CNC(=O)c2sc3ncnc(N(C)C4CCCCC4)c3c2C)cc1,"inconclusive [inhibitor, single point]",
CCN(CC(=O)Nc1ccc2c(c1)OCCO2)C(=O)/C=C/c1cccc(C(F)(F)F)c1,,inactive: -3.51%
Oc1ccccc1/C=N/Nc1cccc2cccnc12,"inconclusive [inhibitor, single point]",
CCN(C(=O)COC(=O)/C(=C/c1ccccc1)n1nnnc1C)C1CCCCC1,active: 23.1 µM,
O=C1N[C@@H](Cc2ccccc2)C(=O)N1CCN1CCOCC1,,inactive: -3.95%
CCC(=O)N1c2ccc(S(=O)(=O)NCc3ccco3)cc2CC1C (configuration not stated),"inconclusive [inhibitor, single point]",
COc1cc(Br)c(CCNC(=O)Cc2ccccc2)cc1OC,,inactive: -23%
O=S(=O)(NC(=S)NC1CCCCC1)c1ccc(Br)cc1,"inconclusive [inhibitor, single point]",
O=C(Cc1ccc(-c2ccccc2)cc1)Nc1ccccn1,"inconclusive [inhibitor, partial curve]",
Cc1oc2ncnc(N3CCCCC3)c2c1C(=O)Nc1cccc(F)c1,"inconclusive [inhibitor, single point]",
Cc1[nH]c2ccccc2c1CN1CCc2ccccc2C1,active: 11.6 µM,
Cc1ccccc1CN1C(=O)C(O)(CC(=O)c2cccc(Br)c2)c2ccccc21 (configuration not stated),active: 5.17 µM,
CC(C)CCN1CCN(Cc2cccn2-c2cccnc2)CC1CCO (configuration not stated),,inactive: -21.6%
O=C(Cc1cccc2ccccc12)Nc1ccc(Br)cc1C(=O)O,"inconclusive [inhibitor, single point]",
CC(C)(C)S(=O)N1Cc2cc(C(=O)NCc3ccc4c(c3)OCO4)nc(-c3cccc(-c4cc5ccccc5o4)c3)c2[C@@H]1CCO (some centres not stated),"inconclusive [inhibitor, single point]",
